Results published in article PMC4336329 (PLoS ONE, 2015).
Among all 310,000 compounds or so, about 2,200 (0.71%) showed an effect of 50% or more. Effects have a minus sign here. Some of the results follow.

Each molecule was assayed against human ether-à-go-go-related gene (hERG) potassium channel (human, UniProt Q12809) (assay: primary screen, population patch clamp on CHO cells stably expressing hERG).
Chain of human ether-à-go-go-related gene (hERG) potassium channel (Q12809 whole entry, looked up): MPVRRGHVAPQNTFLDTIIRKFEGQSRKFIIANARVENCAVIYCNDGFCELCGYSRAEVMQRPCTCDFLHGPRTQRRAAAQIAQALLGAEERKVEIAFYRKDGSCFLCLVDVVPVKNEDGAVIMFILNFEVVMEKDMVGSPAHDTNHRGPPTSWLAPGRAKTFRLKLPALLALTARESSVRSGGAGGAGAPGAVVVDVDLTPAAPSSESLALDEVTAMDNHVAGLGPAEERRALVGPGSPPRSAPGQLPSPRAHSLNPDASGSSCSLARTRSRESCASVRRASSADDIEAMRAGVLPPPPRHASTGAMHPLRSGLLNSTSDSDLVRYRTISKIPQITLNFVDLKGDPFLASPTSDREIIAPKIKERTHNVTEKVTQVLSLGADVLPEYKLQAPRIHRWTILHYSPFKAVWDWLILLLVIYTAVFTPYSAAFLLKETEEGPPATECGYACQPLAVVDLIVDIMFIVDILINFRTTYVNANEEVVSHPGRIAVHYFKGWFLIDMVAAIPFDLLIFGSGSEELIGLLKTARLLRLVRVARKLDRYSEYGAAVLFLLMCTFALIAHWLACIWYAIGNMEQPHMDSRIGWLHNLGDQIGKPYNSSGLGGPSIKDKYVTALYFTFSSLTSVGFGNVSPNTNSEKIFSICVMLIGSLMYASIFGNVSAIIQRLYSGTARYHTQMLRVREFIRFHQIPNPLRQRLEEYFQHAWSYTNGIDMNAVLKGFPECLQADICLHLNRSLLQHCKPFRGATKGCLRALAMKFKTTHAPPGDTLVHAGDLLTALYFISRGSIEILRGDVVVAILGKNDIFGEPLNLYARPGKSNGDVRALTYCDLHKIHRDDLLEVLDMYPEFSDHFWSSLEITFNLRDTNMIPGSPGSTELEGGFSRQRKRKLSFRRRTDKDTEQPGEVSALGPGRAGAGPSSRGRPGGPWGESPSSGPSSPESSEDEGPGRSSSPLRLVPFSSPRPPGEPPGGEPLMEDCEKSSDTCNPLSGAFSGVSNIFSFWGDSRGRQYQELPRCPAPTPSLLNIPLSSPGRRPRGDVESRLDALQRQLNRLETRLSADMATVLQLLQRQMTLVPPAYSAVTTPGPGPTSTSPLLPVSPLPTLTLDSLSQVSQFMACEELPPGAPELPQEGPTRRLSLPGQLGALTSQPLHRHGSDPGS

Row | Compound | hERG current change (%, negative = inhibition) at 1uM
1 | COc1ccc2nc(C)cc(SCC(=O)NNC(=O)COc3cccc4ccccc34)c2c1 | 13%
2 | O=c1nc(N/N=C/C=C/c2ccccc2)cn[nH]1 | 9.87%
3 | COc1ccc(/C=C2\SC(=O)N=C2N)cc1 | 11.7%
4 | CCc1cccc(C)c1NC(=O)C1CCN(C(=O)c2ccc([N+](=O)[O-])cc2)CC1 | -8.45%
5 | Cc1ccc[n+](CC(=O)N2CCCCC2)c1C.[Br-] | 11.1%
6 | O=C(c1c(Cl)cccc1Cl)N1CCN(c2cccc3[nH]ccc23)CC1 | 11.2%
7 | COc1ccc(CNS(=O)(=O)c2ccc(NC(=O)N3CCCCC3)cc2)cc1 | 3.41%
8 | O=C(NCC(c1ccco1)N1CCN(c2ccccc2F)CC1)C1CCCCC1 (stereo not shown) | 16.1%
9 | Cc1sc2ncnc(SCC(=O)N3CCN(C(=O)c4ccco4)CC3)c2c1C | -67.3%
10 | Cc1nc(-c2ccncc2)nc(NCCNc2ccc(C(F)(F)F)cn2)c1Cl | 5.61%
11 | COc1cccc(CNC(=O)Cn2cc3c(n2)CCCC3)c1 | 8.27%
12 | O/N=C/c1ccc(OCc2ccccc2F)c(Cl)c1 | 1.1%
13 | O=C(c1cccc(N2C(=O)C3C4C=CC(C4)C3C2=O)c1)N1CCN(c2ccccc2F)CC1 (stereo not shown) | 11.7%
14 | Cc1ccc(OCC(=O)OCC(=O)Nc2sccc2C(N)=O)cc1C | 16.3%
15 | O=C(COC(=O)Cc1ccccc1[N+](=O)[O-])NCC1CCCCC1 | 3.86%
16 | COP(=O)(CC(=O)c1ccccc1)CC(=O)c1ccccc1 | 8.51%
17 | CCN(CC)C(=O)C1CCCN(Cc2nc(-c3cnccn3)no2)C1 (stereo not shown) | -1.4%
18 | Cc1ccc(OCC(=O)Nc2ccc(F)cc2)cc1 | 16.9%
19 | CCn1cc(S(=O)(=O)CC(=O)Nc2cccc(C)c2)c2ccccc21 | 13%
20 | COc1cccc(C(=O)Nc2ccc(S(=O)(=O)Nc3nccc(C)n3)cc2)c1 | 17.4%
21 | COc1cccc(/C=N\NC(=O)c2ccc(C)nc2)c1 | 13.3%
22 | C/C(=N\NS(C)(=O)=O)c1ccccc1 | 11.3%

Row | Compound | hERG current change (%, negative = inhibition) at 1uM
23 | COc1cc(C(=O)N2CCC(O)(c3ccccc3)CC2)cc(OC)c1OC | 9.08%
24 | COC(=O)C(NS(=O)(=O)c1ccc(NC(C)=O)cc1)C(C)C (stereo not shown) | 3.26%
25 | COCCNC(=O)CNC(=S)N(CCCN1CCOCC1)Cc1cccs1 | 6.05%
26 | CCOC(=O)c1c2ccc(OCC(=O)NN)cc2n2ccccc12 | 13.3%
27 | O=C(COC(=O)CCCN1C(=O)c2ccccc2C1=O)Nc1ncc(Cl)cc1Cl | 6.88%
28 | O=S(=O)(Nc1ccc(-c2nc3cccnc3s2)cc1)c1ccccc1F | 12.3%
29 | CCn1c(=O)cc(O)c2ccccc21 | 5.93%
30 | Cc1ccc(NC(=O)CSc2nnc(CCC(=O)O)c(=O)[nH]2)cc1 | 12.6%
31 | CCc1ccc(Nc2nnc(SCn3nnc4ccccc4c3=O)s2)cc1 | -9.72%
32 | COC(=O)c1ccc(CNC(=O)Cn2cnnn2)cc1 | 9.54%
33 | CCCOc1cccc(C2C(C(=O)c3cccs3)=C(O)C(=O)N2CCN2CCOCC2)c1 (stereo not shown) | 15%
34 | Cc1cc(/C=C2\SC(=S)NC2=O)cc(C)c1O | 14.7%
35 | CC(C)C[C@H]1CN=C(N(C)C)N1CC1CCCCCC1 | 3.22%
36 | O=C(CCCl)N(Cc1nc2ccccc2c(=O)[nH]1)Cc1cccs1 | 7.98%
37 | CC(C)NC(=O)c1ccc(NC(=O)CC2SC(N3CCCCC3)=NC2=O)cc1 (stereo not shown) | 5.6%
38 | CCOc1ccccc1NC(=O)CSc1nc2ccccc2nc1N1CCCC1 | 11.8%
39 | O=C(Cc1ccccc1)Nc1ccccc1Oc1ccccc1 | 8.82%
40 | CCOc1ccc2nc(NCCNC(=O)Nc3cccc(C)c3)c(C#N)cc2c1 | -0.464%
41 | O=C(O)c1cc(NC(=S)NC(=O)C(c2ccccc2)c2ccccc2)ccc1Cl | 12.5%
42 | CCOC(=O)C1[C@H]2C(=O)N(C(C)c3ccc(OC)cc3)C[C@]23C=C[C@H]1O3 (stereo partly shown) | 1.08%
43 | N#Cc1c(-c2cccnc2)cc(-c2ccccc2)nc1N | 10.1%
44 | O=C(COC(=O)c1ccncc1)Nc1cc(S(=O)(=O)N2CCOCC2)ccc1Cl | 7.02%

Row | Compound | hERG current change (%, negative = inhibition) at 1uM
45 | COc1ccc(N(C(=O)c2ccncc2)S(=O)(=O)c2ccc(Cl)cc2)cc1 | -3.03%
46 | CNC(=S)NNC(=O)c1cn(C)nc1C | 14.6%
47 | COc1ccc(N(CCCN2C(=O)c3cccc4cccc(c34)C2=O)C(=O)c2cccc(OC)c2)cc1 | 17.8%
48 | Cc1cc2cc(C(c3nnnn3Cc3ccccc3)N3CCc4ccccc43)c(=O)[nH]c2cc1C (stereo not shown) | 1.41%
49 | CS/C(N)=N/N=C/c1c(O)ccc2ccccc12 | 0.189%
50 | CC1(C)CC(CC(=O)Nc2nccs2)(c2ccccc2)CCO1 (stereo not shown) | 3.87%
51 | CC(Sc1n[nH]c(N)n1)c1nc2scc(-c3cccs3)c2c(=O)[nH]1 (stereo not shown) | 9.29%
52 | Cc1ccccc1S(=O)(=O)Cc1ccc(C(=O)NCc2ccc(F)cc2)o1 | -5.68%
53 | C=CCn1c(=O)c2ccc(C(=O)NCc3ccccc3)cc2n(Cc2ccc(C)cc2)c1=O | 21.2%
54 | CCCCOC(=O)c1ccc(NC(=S)N2CCN(c3ncc4c(=O)c(C(=O)O)cn(CC)c4n3)CC2)cc1 | 10.8%
55 | O=C(NNC(=S)NCc1ccco1)c1cccs1 | 2.04%
56 | Cc1ccnc2nc(C(=O)Nc3nnc(-c4ccc(Cl)cc4)o3)nn12 | 8.17%
57 | CCCN(CC(=O)Nc1cc(Cl)cc(Cl)c1)CC(=O)Nc1ccc(F)c(F)c1F | 9.77%
58 | COc1ccc(N2CCN(C(=O)c3cn(Cc4ccccc4)nc3-c3cccnc3)CC2)cc1 | 0.0813%
59 | CCc1ccc(NC(=S)Nc2cc(OC)c(NC(=O)C(C)C)cc2OC)cc1 | 14.2%
60 | CC(=O)N1N=C(c2ccc(Cl)cc2)OC1c1ccc(C(C)C)cc1 (stereo not shown) | 9.42%
61 | CCOC(=O)c1ccc(NC(=S)N(CCCN2CCCC(C)C2)Cc2ccco2)cc1 (stereo not shown) | -42.8%
62 | CCOC(=O)c1c(N)sc(C(N)=O)c1C | 15.5%
63 | Cc1ccccc1C(=O)NC(NCC1CCCO1)C(Cl)(Cl)Cl (stereo not shown) | 7.12%
64 | Cc1cn([C@H](C(=O)NCCCCCCCCCCC(=O)N2CCN(C(=O)OC(C)(C)C)CC2)[C@@H](C)O)nn1 | 19.3%
65 | O=c1cc(O)c(-c2cccc(C(F)(F)F)c2)c(Cl)[nH]1 | 13.7%
66 | Cc1ccc(CS(=O)(=O)CCC(=O)NCc2ccccn2)cc1 | 14%

Row | Compound | hERG current change (%, negative = inhibition) at 1uM
67 | CC(=O)C1=C(O)C(=O)N(c2ccc(O)cc2)C1c1ccc([N+](=O)[O-])cc1 (stereo not shown) | 8.46%
68 | Cc1cc(NS(=O)(=O)c2ccc(NC(=O)CN3C(=O)NC(C)(c4ccccc4)C3=O)cc2)nc(C)n1 (stereo not shown) | -0.243%
69 | COC(=O)[C@@]1(Cc2ccc(OC)cc2)[C@H]2c3cc(C(=O)N4CCCC4)n(Cc4c(CO)[nH]cc(C)c4=O)c3C[C@H]2CN1C(=O)c1ccccc1 | 14%
70 | CCCCCC(=O)Nc1ccc(N2CCN(S(C)(=O)=O)CC2)cc1 | 13.4%
71 | CC(C)C(NC(=O)C1CCCCC1)C(=O)Nc1ccncc1 (stereo not shown) | 9.58%
72 | Cc1ccccc1S(=O)(=O)Nc1cccnc1 | 11.7%
73 | COc1ccc(C(=O)Cc2ccccc2)cc1OC | 4.34%
74 | CCN(CC(=O)NCCc1ccc(S(N)(=O)=O)cc1)Cc1ccccc1 | 15.9%
75 | CC(=O)NC(Cc1ccccc1)C(=O)OCC(=O)c1ccc(F)cc1 (stereo not shown) | 11.6%
76 | C/C(=N/NC(=O)Cn1nc2ccccc2n1)c1ccc(F)cc1 | 1.61%
77 | CCOC(=O)C1=C(C)Nc2ccccc2N=C1NC(=O)CCCN1C(=O)c2ccccc2C1=O | 6.38%
78 | Cc1ccccc1C(=O)c1cccn1CC(=O)NC(C)c1ccc2c(c1)OCCO2 (stereo not shown) | 3.25%
79 | CCCCN1C(=O)C(NC(=O)CC(C)C)(C(F)(F)F)C2=C1CC(C)(C)CC2=O (stereo not shown) | 11%
80 | CCOC(=O)c1cc(-c2ccccc2)nc2ccc(C)cc12 | 5.94%
81 | O=c1[nH]cnc2nn(-c3ccccc3)nc12 | 19.3%
82 | C=CCC(O)c1c(-c2ccccc2)nn(C)c1Cl (stereo not shown) | 23.7%
83 | CCN(CC)Cc1c(O)ccc2c([N+](=O)[O-])c(C)n(-c3ccc(OC)cc3)c12 | 0.542%
84 | Cc1ccoc1C(=O)N1CCN(C(=O)c2occc2C)CC1 | 15.9%
85 | CC(O)CCC(=O)NCCNC(=O)CCC(C)O (stereo not shown) | -2.85%
86 | COc1ccc(-c2nc(CSCC(=O)NCCCN3CCCC3=O)c(C)o2)cc1OC | 18.4%
87 | CC(=O)Nc1ccc(S(=O)(=O)NCC(=O)OCC(=O)NCc2ccco2)cc1 | -19.8%
88 | CCOC(=O)c1c(NC(=O)c2cccs2)sc(C)c1C | 4.47%
